These results are taken from ChEMBL document CHEMBL4888484, “Replenishing the malaria drug discovery pipeline: Screening and hit evaluation of the MMV Hit Generation Library 1 (HGL1) against asexual blood stage Plasmodium falciparum ,using a nano luciferase reporter read-out” (2022).

The whole screen tested about 150,000 compounds, of which about 540 (0.36%) showed an effect of 50% or more. The list shows a part of the results.

The test system of the test is Plasmodium falciparum. Description: Primary screen in NF54 nanoGlo assay, in single point, at 2uM, 72h; a lower Z score goes with more inhibition. In kind it is functional, Erythrocyte. The following applies: timepoint 72 hour.
One may read the % Inhibition as the relative decrease from the control value, in per cent. Consider `COC1CCN(C[C@H]2CCCCN(C(=O)OC(C)(C)C)C2)CC1`, for which the “% Inhibition” value was -10% and the Z score is on record as 0.99.

`O=C(c1c[nH]cn1)N1CCC(n2cc(CC3CCCCC3)nn2)CC1`: the “% Inhibition” value is recorded as -11% and the Z score amounted to 1.46.

For the molecule `CN1CC(c2nc(C3CC(=O)N(c4ccccc4)C3)no2)CC1=O` (stereo not given), the “% Inhibition” value is 9% and the Z score is reported as -1.29.

`CC(=O)N(CCc1noc(C(C)C)n1)[C@H]1CCN(S(=O)(=O)N2CCOCC2)C1`: the “% Inhibition” value worked out at 5% and the Z score is -0.51.

Regarding `Cc1nc2ccc(NC(=O)CN3C(=O)NC(C)(C)C3=O)cc2s1`, the “% Inhibition” value is -9% and the Z score was found to be 0.86.

In the case of `c1ccc(COc2ccccc2OCCNC[C@H]2CCCO2)cc1`, the “% Inhibition” value was found to be 1% and the Z score is reported as -0.17.

Regarding `CC(C)c1cc(C(=O)Nc2cnn(C)c2)n[nH]1`, the “% Inhibition” value is given as -4% and the Z score turned out to be 0.41.

Regarding `COc1ccc(Cc2nc(CCn3cncn3)n(CC(C)(C)O)n2)cc1`, the “% Inhibition” value is given as -5% and the Z score is recorded as 0.61.

On to `COc1c[nH]c(C(=O)NC[C@H](C)Cn2nc(C)cc2C(F)(F)F)cc1=O`, for which the “% Inhibition” value was found to be 3% and the Z score is reported as -0.54.

`O=C(Nc1ccc2c(c1)CCC2)N1CCC(O)CC1`: the “% Inhibition” value was found to be 0% and the Z score stood at 0.06.

For the molecule `Cc1nnc(CC2CCN(C(=O)NCc3ccccc3)CC2)[nH]1`, the “% Inhibition” value was found to be 0% and the Z score is 0.02.

As for `CC(=O)c1ccc(N2CCN(C(=O)CC3CC4CCC3C4)CC2)cc1` (stereo not given), the “% Inhibition” value is on record as -3% and the Z score came out at 0.53.

Turning to `Cc1nn(CC(F)F)cc1C(=O)N[C@H]1CCc2[nH]cnc2C1`, the “% Inhibition” value is reported as -4% and the Z score stood at 0.61.

On to `O=C1CN(C2CC2)C(=O)N1Cc1ccc(F)cc1Br`, for which the “% Inhibition” value is given as 1% and the Z score is listed as -0.09.

Take `O=C(c1cc2ccccc2[nH]1)N1CC[C@@]2(C1)NC(=O)N(Cc1ccc(Cl)cc1)C2=O`: the “% Inhibition” value is -7% and the Z score was 0.91.

Consider `Cc1cc(O)c([C@H](c2ccccc2)N2CCN(c3ccccc3F)CC2)c(=O)n1Cc1ccccn1`, for which the “% Inhibition” value is recorded as 8% and the Z score is -1.14.

Consider `COCCN1C(=O)N[C@@](Cc2ccc(F)cc2)(C2CCN(Cc3ccc(O)cc3)CC2)C1=O`, for which the “% Inhibition” value was found to be 1% and the Z score is -0.13.

On to `Cc1csc(NC(=O)[C@H](C)Nc2ccccc2F)n1`, for which the “% Inhibition” value is recorded as -45% and the Z score was 5.32.

In the case of `CC[C@@]1(CNC(=O)N2CC(OCc3nc(C)no3)C2)OCCc2ccccc21`, the “% Inhibition” value came out at 2% and the Z score is listed as -0.42.

For `C[C@@H](Nc1ncnc2c1CN(C)CC2)c1ncccc1F`, the “% Inhibition” value worked out at 0% and the Z score is recorded as -0.01.

As to `CC(C)n1cnnc1CC1CN(C(=O)Nc2cc(F)ccc2F)C1`, the “% Inhibition” value is recorded as -1% and the Z score stood at 0.2.

As for `CN(CCC(=O)Nc1nccs1)Cc1cc(-c2cccs2)n[nH]1`, the “% Inhibition” value is -13% and the Z score was found to be 1.65.

In the case of `O=C(CN1CCC(O)CC1)Nc1cc(C2CC2)nn1-c1ccccc1`, the “% Inhibition” value is on record as -18% and the Z score came to 1.66.

For the molecule `O=C(OCC(=O)N1CCCC1)c1ccc2n[nH]c(=O)n2c1`, the “% Inhibition” value turned out to be 29% and the Z score is -3.92.

`CC[C@@H](c1ccncc1)N(C)Cc1nnnn1-c1ccccc1`: the “% Inhibition” value is given as -12% and the Z score amounted to 2.23.

On to `C[C@H](NC(=O)N1CCC(CN2CCN(C)CC2)CC1)c1cc(F)cc(F)c1`, for which the “% Inhibition” value worked out at 7% and the Z score is reported as -0.91.

As for `NC(=NCc1cc(Br)ccc1F)N1CCCC1`, the “% Inhibition” value is given as -14% and the Z score came out at 1.56.

For `Cn1ccc2cc(S(=O)(=O)N3CCN(C(=O)Nc4cc(F)ccc4F)CC3)ccc21`, the “% Inhibition” value is reported as -5% and the Z score amounted to 0.71.

Regarding `CCOc1ccc(-n2cc3c(c2-c2ccccc2Cl)c(=O)n(-c2ccccc2)n3C)cc1`, the “% Inhibition” value is 2% and the Z score is listed as -0.3.

As for `Cc1ccc2ncc(C(=O)OCCOc3cccnc3)n2c1`, the “% Inhibition” value is reported as -12% and the Z score is reported as 1.2.

Consider `O=C1CCCC[C@@H](C(=O)NCCc2ccc3c(c2)OCO3)N1`, for which the “% Inhibition” value is listed as -3% and the Z score came out at 0.48.

Take `CN(C)c1noc([C@@H]2CCCN2CC(=O)Nc2nncs2)n1`: the “% Inhibition” value came out at 4% and the Z score is given as -0.55.

Consider `Oc1ccccc1C1=NN[C@@](O)(C(F)(F)C(F)F)C1`, for which the “% Inhibition” value is reported as -6% and the Z score was found to be 0.8.

On to `CCC1CN(C(=O)C2C3CCCC32)CC(C)O1` (stereo not given), for which the “% Inhibition” value is listed as -10% and the Z score was determined as 1.37.

As for `C=C(C)CN(C)Cc1ccc(C#N)cc1`, the “% Inhibition” value is -3% and the Z score came to 0.35.

Turning to `O=C(Nc1nnn[nH]1)c1ccc(OCC(F)(F)C(F)F)nc1`, the “% Inhibition” value is listed as -9% and the Z score stood at 1.28.

Regarding `O=C(Nc1ccc(N2CCCC2=O)cc1)Nc1cccnc1`, the “% Inhibition” value is 8% and the Z score is recorded as -1.4.

For `Cc1c[nH]c(CNCC2(c3ccccc3)CC(O)(C(F)(F)F)C2)n1` (stereo not given), the “% Inhibition” value is listed as -10% and the Z score is reported as 1.04.

`CC1CCC(OC2CCN(C(=O)COC[C@H]3CCCO3)CC2)CC1` (stereo not given in full): the “% Inhibition” value is on record as 20% and the Z score is recorded as -2.62.

For `CCN(CC)S(=O)(=O)c1cc2c(cc1NC1CCCC1)Oc1ccc(C)cc1NC2=O`, the “% Inhibition” value was -16% and the Z score stood at 2.17.

For the molecule `Cn1cc(NC(=O)C2CC3CCC2O3)cc(Br)c1=O` (stereo not given), the “% Inhibition” value is given as -5% and the Z score is listed as 0.67.

Take `CC(NCC(=O)N(C)c1ccccc1)C1CCCO1` (stereo not given): the “% Inhibition” value is recorded as -6% and the Z score is listed as 0.96.

`CS(=O)(=O)Nc1ccc(Br)cn1`: the “% Inhibition” value was -15% and the Z score is 1.92.

Take `COc1cc(OC)cc(C(=O)N2CCCN(c3nc4cc(C)c(C)cc4nc3-c3ccccc3)CC2)c1`: the “% Inhibition” value was 3% and the Z score is -0.36.

`CCc1ccc(-c2ccc(C(=O)N(C)[C@@H](C)CS(C)(=O)=O)o2)cc1`: the “% Inhibition” value was -5% and the Z score turned out to be 0.53.

For the molecule `CC(C)(CN)NS(=O)(=O)Cc1c(Cl)cccc1Cl`, the “% Inhibition” value stood at 9% and the Z score is reported as -1.39.

In the case of `COc1ccc(NC(=O)C2CCCCC2)cc1S(=O)(=O)N1CCOCC1`, the “% Inhibition” value came out at 3% and the Z score was -0.4.

For the molecule `O=C(NCc1cnc2c(c1)CCC2)c1cnnn1-c1ccccc1`, the “% Inhibition” value is reported as -6% and the Z score is given as 0.77.

For the molecule `O=C(NCc1nc2ccccc2n1C1CC1)C1CCC(O)CC1` (stereo not given), the “% Inhibition” value was -13% and the Z score amounted to 1.27.

Turning to `CC1CN2CCCCC2CN1C(=O)COCC1CC1` (stereo not given), the “% Inhibition” value is listed as -4% and the Z score is given as 0.72.

With `CCn1ncnc1CNc1ccc(C(=O)NC(C)(C)CC)cc1`, the “% Inhibition” value is given as -8% and the Z score came to 1.16.

For the molecule `O=C(Nc1ccnc(OCC(F)(F)C(F)F)c1)N1CC[C@H](O)C1`, the “% Inhibition” value was -7% and the Z score was 0.97.

Consider `Cc1ccsc1C(=O)NC[C@H](Cc1ccccc1)C(=O)O`, for which the “% Inhibition” value is on record as -11% and the Z score is 1.68.

As for `Cc1ncc(CNC(=O)C(=O)Nc2ccccc2C(C)C)s1`, the “% Inhibition” value worked out at 4% and the Z score is -0.44.

Take `C[C@@H](c1ccncn1)N(C)C(=O)NC(C)(C)CN1CCCCCC1`: the “% Inhibition” value turned out to be 1% and the Z score was -0.19.
